From the supplement of paper PMC10126150
Sequences with one replicate were seen in a single cluster, so their values are uncertain.

What follows are sequences tested on ATP (assay: switch fluorescence ratio, 500 uM ATP over buffer (Cy3 cluster intensity, sum of 5 cycles each) (fold (ratio)); higher = stronger signal-on switching upon ATP binding; sequences stand for … in TCGTCGGCAGCGTCAGATGTGTATAAGAGACAGTTTTTTTTTTTTTTTTTTTTTTTTT…TC). Conditions: aptamer strand: ATP DNA aptamer (quencher-CACCTGGGGGAGTATTGCGGAGGAAGG + anchor), 100 nM annealed; ATP concentration: 500 uM; one replicate.
Method in brief: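 Imaging in selection buffer was followed by imaging after 15 min with 500 uM ATP at 22 °C, for Cy3-labelled switching-strand clusters annealed to 100 nM quencher-labelled ATP aptamer on a modified Illumina MiSeq flow-cell. Five of these buffer/ATP cycles ran, separated by NaOH stripping and re-annealing. The fluorescence ratio per cluster is summed target-cycle over summed buffer-cycle Cy3 intensity, averaged per switch-domain sequence; clusters outside 100-1000 RFU were removed.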
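Further: ATP exposure 15 min at 22 °C before imaging.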

Row | Sequence | switch fluorescence ratio
1 | CCTAAACTTC | 0.996
2 | TTCACTCGGT | 0.98
3 | AATACGAAAT | 1.1
4 | CTTACTGGGT | 1.02
5 | CGTGGGACCG | 1.01
6 | AGTCGCACTT | 0.978
7 | TGGTTCATCC | 1.26
8 | CTAAGAGTAG | 0.967
9 | GTATTTAAGT | 0.996
10 | GATAACTCCG | 1.28
11 | AGAGTACCTC | 1.07
12 | GCCTCTTTCC | 1.05
13 | CTATATAAGT | 1.01
14 | TATCATAATA | 1.03
15 | ATACGTTATG | 1.15
16 | GTCTCAGCGG | 0.994
17 | TAAGGACTAT | 1.04
18 | CACAGTATTC | 1.11
19 | CGTTAGAGA | 0.964
20 | ATTACGTCTA | 1.01
21 | GTAAGAAGCA | 0.999
22 | AAGAAATG | 1.01
23 | TGTGGGCC | 1.03
24 | GACTTGGGAA | 0.968
25 | GAGGGGTAAC | 0.98
26 | GTGGGACCTG | 0.956

Row | Sequence | switch fluorescence ratio
27 | GCTTCGAACC | 1.12
28 | ACCTAATGG | 0.955
29 | TAACAGCTCT | 0.936
30 | AGATCGAACG | 1.06
31 | CAGGGCGAGT | 1
32 | ATTGTCACGC | 1.08
33 | GATATGCGGC | 1.05
34 | AGTTGCCCGT | 0.965
35 | CGGTGAATCG | 0.985
36 | TCGTGGAAAA | 0.981
37 | CTCAGCGACG | 1.13
38 | CGTAGGGGCA | 0.979
39 | TGAGCCAAAT | 0.996
40 | TTAATGGTT | 1.07
41 | CCGGGTGAGA | 1.11
42 | AGGTATAGGG | 0.976
43 | CGGATTATAA | 1.11
44 | TGCAGAG | 1.01
45 | CAGGCTAGGA | 0.99
46 | GCATCTAGT | 0.993
47 | TTAAGAAGAG | 0.996
48 | TGCAACAAGA | 1.06
49 | TGGTAACATT | 1.04
50 | TGTAACGCGA | 1.28
51 | GACTTAATCT | 1.05
52 | GGATTTGATC | 1.03

Row | Sequence | switch fluorescence ratio
53 | TTACGTCACT | 1.61
54 | TATCTGAC | 1.08
55 | CCGAGTCCCG | 1.19
56 | AGAGTAAGCC | 0.997
57 | CTAAGATTGC | 1.12
58 | AGATCCGTGT | 1
59 | CCAGTGCGGG | 0.982
60 | CCCCGGAAGT | 1.49
61 | CCGAAAGGAT | 1.62
62 | CCGCCCAGGG | 6.1
63 | TCCCTTGACC | 1.02
64 | TCTGGTATGC | 1.01
65 | GAGCACGGAA | 1.1
66 | TCGTTGAAGA | 1.01
67 | CGCAATGAAG | 1.8
68 | TTGCCATTTC | 0.998
69 | TATGACAACC | 1.09
70 | GTGGCTTCTT | 1.02
71 | TAACGGGCA | 1.03
72 | TTACGTGTCA | 0.983
73 | CACCCGAGGC | 1.26
74 | ACGCTTCTC | 1.44
75 | GTAGTGGTGT | 0.936
76 | CAAAAGTTTC | 0.989
77 | TAAAATAAAA | 1.05
78 | ACTTCTCCTT | 1.04

Row | Sequence | switch fluorescence ratio
79 | ACCTAACTTC | 1.2
80 | TAGCATGTAT | 1.02
81 | TACGCCATTC | 1.79
82 | ATCGCCGATT | 0.989
83 | AAGGAAGCCT | 1.01
84 | CGTTCAAGAT | 1.05
85 | TTACGCCAG | 1.05
86 | GGTTTTACCC | 1.04
87 | TTCGAGTTAT | 1
88 | TACTCGTATA | 1.08
89 | GCGAGATGAC | 1.06
90 | TCAAAATAAC | 1.06
91 | CTGCGGATTT | 1
92 | AAGTATCTTA | 1.03
93 | TCTTGACGC | 1.03
94 | CTTCTGCACG | 1.13
95 | GGCTGGAGCA | 1.06
96 | ACGCATGTTT | 0.987
97 | CAAGAGTCCT | 1
98 | TTCGACTCAC | 1.09
99 | TGCGTCCCCT | 1.02
100 | TTAACCAATA | 1
101 | TTCACTCGAA | 1
102 | GACCTTACTA | 1.48
103 | CAAATGGCCT | 1.07
104 | AACTTCGTCA | 1.06

Row | Sequence | switch fluorescence ratio
105 | CTCTCTGGAG | 1.02
106 | TTCTGATGAG | 1.01
107 | TAGCTTTCTA | 1
108 | GGGGAACCAC | 1.08
109 | TTCTTTTGTC | 1.01
110 | ATCTGCACT | 1.16
111 | AGGATCCCGG | 1.05
112 | TTATAGTAAA | 1
113 | CGGGCTCCTT | 0.977
114 | TTCGCAGAC | 3.9
115 | ATGTCTATTC | 1.05
116 | TCCTACCCGG | 1.02
117 | GCAAGAGGAA | 1.03
118 | GTTGAGGCTA | 0.971
119 | CTACCCTCTC | 1.05
120 | TAGCGTATCT | 0.976
121 | GTTAGATAGA | 1.02
122 | TCCTTCAAAT | 1.21
123 | CGCTGATAAA | 1.01
124 | GACTTTAATG | 0.932
125 | GATAGACCAC | 1.05
126 | AGTGGTTGGA | 0.971
127 | GCCATATTTG | 1.01
128 | AACCATACTG | 1.35
129 | TAGGGAATAT | 0.983
130 | CCGGTCACCC | 1.24

Row | Sequence | switch fluorescence ratio
131 | GGTAGCCACA | 0.963
132 | ATAAGTGACG | 1.01
133 | GTCGCATCAC | 1.89
134 | TTGCCACGTT | 0.958
135 | TAGCCTCTGG | 0.996
136 | GCAATTCAAG | 1.08
137 | AGAAACGAGT | 0.98
138 | TCGTAGGGCA | 1.05
139 | TTACTATTTA | 1.05
140 | TCTAGATCGT | 1.02
141 | ACTCTGCTCG | 1.07
142 | ATGAGAAATG | 0.888
143 | AACGGCCCCC | 0.995
144 | TATCAAATGT | 0.959
145 | GTTGAGGGAG | 1
146 | GGCGCCCAAG | 0.997
147 | CGCAAGTCCC | 4.47
148 | AAGTTATGGA | 1.08
149 | AAGTTAGCAG | 0.999
150 | AGTTGAAG | 0.984
151 | TATCTCCGGG | 1.14
152 | GAAACCGGCG | 1.33
153 | GGGCGCGGCC | 1
154 | CAGGAATACC | 1.45
155 | CGACTGTAGC | 1.25
156 | GCTTGGATG | 0.996

Row | Sequence | switch fluorescence ratio
157 | AAGGCTGCA | 1.01
158 | CGATCAACAT | 1.04
159 | ACTTGGAGTA | 0.987
160 | GTAATAAGA | 0.982
161 | TTGCTCGG | 1.02
162 | AGTGTTGGTC | 1
163 | GGTCTTGT | 0.991
164 | GGGGCTGTG | 0.983
165 | AAGAGTGTCC | 1.02
166 | ATAAGAACT | 1.1
167 | GAGCATCGAT | 1.01
168 | CGTTGTCA | 1.01
169 | TACAGCTCTT | 0.938
170 | ATCCGGATTT | 0.984
171 | GTATTATACG | 1.04
172 | GCCGACTTCT | 1
173 | TCTGGGCACT | 1.38
174 | TACGATCCTG | 1.01
175 | CATGTGACAG | 1
176 | TGCCTGAGGT | 1.02
177 | TAAAAATTCT | 1.06
178 | TGGCAGCCGC | 0.978
179 | TTGACCAGAG | 1.01
180 | TGTGGAGAGT | 1.18
181 | TCATTGTGTT | 0.998
182 | GGTACAAAAG | 1.01

Row | Sequence | switch fluorescence ratio
183 | ACACTTCCAC | 1.38
184 | ACACCCGGTC | 1.15
185 | CAAGAATGAC | 1.04
186 | GAGTTTATAG | 1.01
187 | TGTCCGGTGC | 1.13
188 | TAAGAATATA | 1.01
189 | GAAGAGCTGA | 0.986
190 | GACCCGTTTT | 0.953
191 | GACGTCTCTT | 1.02
192 | TGTTAGCCTC | 0.984
193 | TTTAATGTCT | 0.966
194 | AATTGGTGGC | 0.995
195 | ATTGGAGCGG | 0.925
196 | AGCACATCAA | 0.993
197 | ACAGTAGTGT | 1.02
198 | TTTTGACGT | 1.03
199 | GTGAACTGCC | 1.12
200 | GAATATTTT | 0.98
201 | ATTATCATCT | 1.01
